The list shows a part of the results.

Results on 22 molecules are retold here after PMC12136788.

To fix the notation:
T1: UNK ZnF1-3 (human, UniProt Q9C0B0 31-174)
T1 sequence: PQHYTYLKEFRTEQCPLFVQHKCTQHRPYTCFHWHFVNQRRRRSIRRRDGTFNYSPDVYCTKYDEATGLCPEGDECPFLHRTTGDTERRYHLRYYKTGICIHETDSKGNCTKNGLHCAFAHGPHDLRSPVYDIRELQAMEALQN

B1: 174000252_174001610_1256_CDS_ENSMUSG00000003458_ENSMUST00000003550|mouse|control|control (ssRNA)
RNA: GGGAGUUCUACAGUCCGACGAUCCUCCAGAGUGGCCAGAAGAUCCUCCACCUGGUUUUUCACAGACUCAUUUUUCUGAGACAUGGGAUCUGUGUGCAUCCAGAGAUCUAGUGAAGUUCUUAGGGCCACCUGUCCCAGCUCCACCAACAGAGGAUUGAGCAUCA
B2: chr3:176740097:176740098:-_ENSG00000177565_ENST00000430069|hu_mus|FALSE|FALSE (ssRNA)
RNA: GGGAGUUCUACAGUCCGACGAUCUGUUUUGUAUACCACAAAAGGAGGCACUUUCAGUAUCUGCAAAAGGUGUUUAGUCCUAAAACAUACUCACCUAGAGGAUAACUCAGGAAAACAAUCUGUUACACUCUAAGACCUACUCCACAACAGAGGAUUGAGCAUCA
B3: chr10:126663389:126663390:-_ENSMUSG00000074657_ENSMUST00000099172|mus_mus|FALSE|FALSE (ssRNA)
RNA: GGGAGUUCUACAGUCCGACGAUCGGGCUAUCUCAGGACCCUCCAAUGAAUGAAGCAUUUUCCACUGUGAGGGGGUAUGAAAAGAAAGAAAUUAUAACAAACGUUCCUCGCUCUGAAUUACUUUACCAUUUUGGUUGUUUCGUGCAACAGAGGAUUGAGCAUCA
B4: chr19:34925787:34925788:+_ENSG00000126261_ENST00000246548|perfect_dup|motif|central (ssRNA)
RNA: GGGAGUUCUACAGUCCGACGAUCGAGAUACCCAGCAGUCCCGCUCUCAAUGAGAGGCACAUCAGCGGCCAGACACAUCCGGUUCACGUGGUUUCGUGCAGCUCUGUUAUCUAAUGCAUUCAUGACCAAUAUAAACUGUCGAAACAACAGAGGAUUGAGCAUCA
B5: 167391948_167392068_9331_3pUTR_ENSG00000143190_ENST00000367866|human|control|control (ssRNA)
RNA: GGGAGUUCUACAGUCCGACGAUCUUCCAAAUUUUGGCUUUUUGCUCCUAUUCCCUCUGCCUGUUUUGAAAACUUAAGGAUAAGCAAUGACAUUAGCAGUGUCUUUGGUAUCUAAACCAAAUCCCACUUAAGUUCUGUGGGAUCCAACAGAGGAUUGAGCAUCA
B6: 8928483_8928603_414_3pUTR_ENSMUSG00000020585_ENSMUST00000020909|mouse|control|control (ssRNA)
RNA: GGGAGUUCUACAGUCCGACGAUCGGUAACUCGGUAAUUCACCGUCUCCCAGACGAGCUCCGCAAGGAGGAGAAGGGUGAAACAAGACGGAGUUGGUGGCAGACAGCGGGCACGGAGAUUUUUGGCGCUGUCUUUCGCCACGUUCAACAGAGGAUUGAGCAUCA
B7: chr6:135286264:135286265:-_ENSG00000112339_ENST00000367826|hu_mus|FALSE|FALSE (ssRNA)
RNA: GGGAGUUCUACAGUCCGACGAUCCUCUGGCAGCUGGCAACUGGGAAGUUUUGCAGAGUAAUCCUUAAUACUUGUUGGCAGCUAACUGUACUUUAGUGUCUCUCAUCUAACAAUCAUGACUGCAUGCUGUUUCCUUAGCUGCACCAACAGAGGAUUGAGCAUCA
B8: chr6:30403744:30403745:+_ENSMUSG00000029775_ENSMUST00000068259|mus_mus|FALSE|FALSE (ssRNA)
RNA: GGGAGUUCUACAGUCCGACGAUCAGGAGAAGGCUAAACACUGAUUAUCUAUGGAUUUCGAUUGUGUGUGCUUUCACCUUGCUACAGUGGAUAACGAAAGAUCAGUCAUACUUUUAAUCUAGAAAUGUUAAUAUUUUCAUCAUACAACAGAGGAUUGAGCAUCA
B9: chr2:179515052:179515053:+_ENSMUSG00000000305_ENSMUST00000000314|mus_hu|mus_mus_mus_hu_False|28_78 (ssRNA)
RNA: GGGAGUUCUACAGUCCGACGAUCGCUGUCCCAUGCAGUCACCGUGAACGCCACCUGCUCUGAGGGGACCUGCAGCUCCCGGGUGGCGAAGACUGUCCCAUCUGCCCCGACUUUGAAGUCCAUGCUGUUGGUCUCAUAUUGUGUCAACAGAGGAUUGAGCAUCA
B10: chr17:60770872:60770873:+_ENSG00000011028_ENST00000303375|hu_hu|hu_hu_hu_mus_True|18_28 (ssRNA)
RNA: GGGAGUUCUACAGUCCGACGAUCUCUUUAAAAAAAAAAAAAAAAAGACAAACAAUAAUAGCACAUUUCGAGAAUCAAGAACUACAAUAGAGGGUCCGCUUUGAGUUGUCCAUGUUCACAUUGUCCCCUGGGACACGGGGACUGCAACAGAGGAUUGAGCAUCA
B11: chr1:110565788:110565789:+_ENSG00000168710_ENST00000369799|hu_hu|motif|central (ssRNA)
RNA: GGGAGUUCUACAGUCCGACGAUCCUUCUAUUUUUGUUUUUAAUGUCUGUCUCUCUGAUCAGUGGAAAAGUGAAAAUUUCGGGUAUCGGGCACUAACGUAUGACCCAACUUUGAGGGAUCACAAGCUAGAACAAGUUGAGGAUUCAACAGAGGAUUGAGCAUCA
B12: chr2:47389482:47389483:-_ENSG00000143933_ENST00000272298|hu_mus|motif|central (ssRNA)
RNA: GGGAGUUCUACAGUCCGACGAUCCUCUGCUGCACUAAUAUAGCCAUUGCCAUCCUUAUCAAACACACGGAAUGCUUCUCGGAUCUCUUCUUCACUGUCUGUGUCUUUCAUUUUUCUUGCCAUCAUUGUCAGAAAUUCAGGGAACAACAGAGGAUUGAGCAUCA
B13: chr11:76780297:76780298:+_ENSMUSG00000020840_ENSMUST00000021197|mus_hu|FALSE|FALSE (ssRNA)
RNA: GGGAGUUCUACAGUCCGACGAUCGAAGUCAAUGGGCUGGUUGUUGUAUAGAGUUUUUCUCCCUCCAACCAUAUUGCUUAAGUAUUCCACUGUGUAAAGUUUGUUGUACUUGUGCUGGGGCCUAGGGUCAUUCACUAAACAAAUCAACAGAGGAUUGAGCAUCA
B14: chr19:16406628:16406629:+_ENSMUSG00000024639_ENSMUST00000025541|mus_mus|FALSE|FALSE (ssRNA)
RNA: GGGAGUUCUACAGUCCGACGAUCGACACUUUGUAAGUCAAAGGGGUAUUCGAUGAUCCCUGUAGUGGGGACUCGAACUCUAAGCACGUCUUGUUGUGUAGGCAGAUAGGAAGGGUCGGCUACACGGUCCAAGUCAUUCAGAUACAACAGAGGAUUGAGCAUCA
B15: chr18:34367003:34367004:-_ENSG00000134779_ENST00000590842|hu_hu|FALSE|FALSE (ssRNA)
RNA: GGGAGUUCUACAGUCCGACGAUCCCUCAGCUCCCAUUGGAGGGGCUCAACAGCCAGUUUCCAGUGAACACAUUUUCUUCUAUUCAUUUUGAUAUUAUAAGUUAUCUUGGCCUGUGGGCUAAUGCCAUAGCUGGUGAAGGCAUACAACAGAGGAUUGAGCAUCA
B16: chr1:151373259:151373260:+_ENSG00000159377_ENST00000290541|hu_mus|FALSE|FALSE (ssRNA)
RNA: GGGAGUUCUACAGUCCGACGAUCCAAGUAUGCACCAUAACCAGUGGCCAGUGAAGGGGCUUCAUAAGCUACACCAAGCAUGUCCACAUAACCGAGGAAGCUUUCUCCGUCAGCAUAGCCUCCAAUGACCAUGGUGUUCCACAGCAACAGAGGAUUGAGCAUCA
B17: chr7:52357369:52357370:-_ENSMUSG00000003420_ENSMUST00000003512|mus_hu|FALSE|FALSE (ssRNA)
RNA: GGGAGUUCUACAGUCCGACGAUCGUGCUCCCGCAGGCGGUGCGGGCAGGAGAAUAGCAGGAAGGUGAGCUCCUUGUUGGCCGCCUUGUCCUGCUGCUGCCACCGCUGACUGAUAGCCAGGGCCUCGGGCCAGUCCCCACCCCACAACAGAGGAUUGAGCAUCA
B18: chr13:100193941:100193942:-_ENSMUSG00000052727_ENSMUST00000064762|mus_mus|FALSE|FALSE (ssRNA)
RNA: GGGAGUUCUACAGUCCGACGAUCUGUCUGAACUCUCUACAUGGUCAACAUAGAAGUUGAGAAUUCAUUUGUUUUCAAUCUAUUACUUCUCUCACUGAAUGUUUUCCAGGAAAAACAAAAACAAAAAACCAACCCAAGCAAACUCAACAGAGGAUUGAGCAUCA
B19: chr9:5785663:5785664:-_ENSG00000099219_ENST00000339450|hu_mus|FALSE|FALSE (ssRNA)
RNA: GGGAGUUCUACAGUCCGACGAUCCGAGCAAUUUCCAGAGGCUCCUCUUCUGCGGUGCACACGUAACAGUGCUCUUGUUGACAUUCAGACAGUUCUGAGGGCCACUCUGAGAGGCGCCUUCCUGUUCUCACCUGACAAGGAUAUCAACAGAGGAUUGAGCAUCA
B20: 7304538_7304739_528_CDS_ENSMUSG00000024764_ENSMUST00000025675|mouse|control|control (ssRNA)
RNA: GGGAGUUCUACAGUCCGACGAUCAUCGGUCAUUUCCUCCCGUUUUUCUCGGUCCUUCCAGCCCCACUCACUUUGCUCAUACAUCGUCUGCAUAUUGGUUUUGGUCAGGUCGAAGGCCCAGUCCACAGUGGCUGGCUCCAAUCCCAACAGAGGAUUGAGCAUCA
B21: 127212780_127214178_858_CDS_ENSMUSG00000037300_ENSMUST00000118134|mouse|control|control (ssRNA)
RNA: GGGAGUUCUACAGUCCGACGAUCCAGGCUUCCGUGGUGGUAGAGCAUCAUUCCCCGCAGCUGCAGGGUCUGCACGUGGUUCUGGUUGAGCAGCAGGGCCUUCUGGAAGCUCUCGGUGGCUGCGUCAAAGUUGCCCAGUUCUCUCAACAGAGGAUUGAGCAUCA
B22: chrX:141883135:141883136:-_ENSMUSG00000041688_ENSMUST00000112835|mus_hu|FALSE|FALSE (ssRNA)
RNA: GGGAGUUCUACAGUCCGACGAUCCUAUUAAUCUGGUUUCUAACUAAGACAUCCCAAAACCUCUACCCCCAACCCUUACCUAACACCCCCCACUUCCCUCACCCUCCCUAUACCCCUUAAAACUGAUCUUAAUGAUGCUAUCUGCAACAGAGGAUUGAGCAUCA

The assay has as its target T1, UNK ZnF1-3. The assay can be described thus: nsRBNS (natural sequence RNA bind-n-seq); RBNS binding buffer (assumed for nsRBNS): 25 mM Tris pH 7.5, 150 mM KCl, 3 mM MgCl2, 0.01% Triton X-100, 500 ug/ml BSA, 20 U/ml SUPERase-In, 4 C; UNK is unkempt and MSI1 is Musashi-1; names of the RNAs are library labels; protein concentration not given here; high values mean tight binding.
For B1, the binding signal amounted to 0.581 enrichment R.

B2 showed a binding signal of 0.816 enrichment R.

For the molecule B3, the binding signal is 1.04 enrichment R.

Molecule B4 gave a binding signal of 0.496 enrichment R.

For the molecule B5, the binding signal was 0.838 enrichment R.

Take B6: the binding signal was found to be 0.903 enrichment R.

As for B7, the binding signal was determined as 0.795 enrichment R.

On to B8, for which the binding signal was 0.727 enrichment R.

As to B9, the binding signal was 0.68 enrichment R.

B10 had a binding signal of 2.74 enrichment R.

In the case of B11, the binding signal came to 1.93 enrichment R.

On to B12, for which the binding signal was 0.83 enrichment R.

B13 registered a binding signal of 0.66 enrichment R.

In turn, B14 registered a binding signal of 0.648 enrichment R.

Regarding B15, the binding signal was 1.23 enrichment R.

Molecule B16 registered a binding signal of 1.05 enrichment R.

As for B17, the binding signal stood at 0.754 enrichment R.

B18 yielded a binding signal of 1.12 enrichment R.

Regarding B19, the binding signal was determined as 0.578 enrichment R.

Molecule B20 returned a binding signal of 0.676 enrichment R.

B21 registered a binding signal of 1.45 enrichment R.

Molecule B22 came in with a binding signal of 1.25 enrichment R.
